{"source": "ChEMBL document CHEMBL4888484", "about": "“Replenishing the malaria drug discovery pipeline: Screening and hit evaluation of the MMV Hit Generation Library 1 (HGL1) against asexual blood stage Plasmodium falciparum ,using a nano luciferase reporter read-out” (2022)", "note": "The whole screen tested about 4,800 compounds, of which about 410 (8.5%) showed an effect of 50% or more. The list shows a part of the results.", "data": [{"system": "Plasmodium falciparum", "test": "Confirmatory screen in NF54 pLDH assay, in single point, at 2uM, 72h", "format": "functional, Erythrocyte", "conditions": "timepoint 72 hour", "units": {"% Inhibition": "%"}, "values": [{"smiles": "O=C(CCn1c(=O)[nH]c2ccsc2c1=O)NCc1ccccc1", "% Inhibition": 18}, {"smiles": "CC(C)C[C@]1(C)NC(=O)N(Cc2noc(-c3cccs3)n2)C1=O", "% Inhibition": -4}, {"smiles": "O=C(c1cn(CC2(O)CCN(Cc3ccccc3)CC2)nn1)N1CCCc2ccccc21", "% Inhibition": 14}, {"smiles": "O=C(NC1CC1)c1nc(C(=O)N2CCN(c3ccccn3)CC2)cs1", "% Inhibition": 0}, {"smiles": "O=c1c2ccccc2nc2cc(-c3ccc(O)cc3)c(-c3ccccc3)nn12", "% Inhibition": 28}, {"smiles": "O=C(CNc1ccc2ccccc2c1)Nc1ccc2c(c1)OCCCO2", "% Inhibition": 9}, {"smiles": "CCCCS(=O)(=O)N1CC[C@H](CC(=O)NCc2ccccc2)C1", "% Inhibition": -15}, {"smiles": "Cc1nc2c(Oc3ccccc3)cccc2c2c1CCN2c1ccc(OC(F)(F)F)cc1", "% Inhibition": -20}, {"smiles": "O=C(Nc1cccc2ccccc12)c1nn[nH]c1NS(=O)(=O)c1ccccc1", "% Inhibition": -5}, {"smiles": "O=C1CN(C(=O)c2ccc3noc(-c4ccccc4)c3c2)CCN1", "% Inhibition": 1}, {"smiles": "O=C1CNC(=O)N1Cc1ncoc1-c1ccccc1", "% Inhibition": -21}, {"smiles": "O=C1O[C@H](C(=O)Nc2ccc(S(=O)(=O)N3CCCC3)cc2)Cc2ccccc21", "% Inhibition": -10}, {"smiles": "N#CCc1ncc(CCN2C(=O)c3ccccc3C2=O)s1", "% Inhibition": 7}, {"smiles": "C[C@H]1CN(Cc2cc3c(cc2Br)OCO3)CCN1S(C)(=O)=O", "% Inhibition": -6}, {"smiles": "COc1nc2ncnc(OC)c2nc1C#N", "% Inhibition": 12}, {"smiles": "c1cc(-c2nnn(CN3CCCCC3)n2)ccn1", "% Inhibition": -5}, {"smiles": "CCS(=O)(=O)N1CCC(N2C(=O)[C@@H]3CC[C@@H](c4ccccc4)N3C2=O)CC1", "% Inhibition": -9}, {"smiles": "Cc1nn(CCc2nnc(-c3ccc4c(c3)OCO4)o2)c(C)c1Cl", "% Inhibition": 11}, {"smiles": "Cc1cc(C)n(-c2nnc(-c3ccccc3)c(-c3ccccc3)n2)n1", "% Inhibition": 10}, {"smiles": "COc1c2c(cc3c1[C@@H](C#CCOc1ccccc1)[N+](C)(C)CC3)OCO2", "% Inhibition": 68}, {"smiles": "CC(C)(C)c1cnc(CN2CCCN(C(N)=O)CC2)s1", "% Inhibition": 0}, {"smiles": "Cc1nnc2ccc(S(=O)(=O)N(Cc3ccccc3F)c3cc(F)cc(F)c3)cn12", "% Inhibition": 4}, {"smiles": "c1ccc(-c2cc3c(N4CCC4)ncnc3s2)cc1", "% Inhibition": 6}, {"smiles": "COc1cccc(-c2nsc(C(=O)NCc3cccnc3)c2N)c1", "% Inhibition": 8}, {"smiles": "CC(C)[C@@H](C(=O)Nc1ccc2c(c1)OCO2)N(Cc1cccnc1)C(=O)Cn1nnc2ccccc21", "% Inhibition": -2}, {"smiles": "COc1ccc(C(=O)n2[nH]c(=O)c(CCO)c2C)cc1", "% Inhibition": 5}, {"smiles": "Nc1noc2cc(C(F)(F)F)cnc12", "% Inhibition": 9}, {"smiles": "c1ccc(-c2cccnc2NCc2cscn2)cc1", "% Inhibition": -3}, {"smiles": "COc1ccc(NC(=O)Cc2c(C)nn(-c3nc(C)cs3)c2O)c(OC)c1", "% Inhibition": 5}, {"smiles": "O=C(O)Cc1ccc(OCc2nnc(-c3ccccc3)s2)cc1", "% Inhibition": 5}, {"smiles": "CN(c1ccc(Cl)cn1)S(=O)(=O)c1ccc2ncccc2c1", "% Inhibition": -14}, {"smiles": "O=c1cc(-c2ccccc2)n(S(=O)(=O)c2ccccc2)o1", "% Inhibition": -7}, {"smiles": "Cc1cnn(-c2ccncc2NS(C)(=O)=O)c1", "% Inhibition": -18}, {"smiles": "CN(C(=O)C1C(C(=O)O)C1(C)C)c1ccccc1OC(F)F", "note": "(stereo unspecified)", "% Inhibition": 2}, {"smiles": "Cc1cnc(-n2cnnc2)c(-c2ccc(S(C)(=O)=O)cc2)c1", "% Inhibition": -1}, {"smiles": "CC(C)n1nccc1N1C(=O)N[C@@H](CC(F)(F)F)C1=O", "% Inhibition": 0}, {"smiles": "O=C(CN1C(=O)COc2ccccc21)N1CCC[C@H](c2nc3ccccc3s2)C1", "% Inhibition": -13}, {"smiles": "Cc1c(N2CCN(C(=O)c3ccc(F)cc3)CC2)c(=O)n(C)c(=O)n1C", "% Inhibition": 7}, {"smiles": "CCOC(=O)CNc1ccc(F)c(Cl)c1", "% Inhibition": -3}, {"smiles": "Cc1ccc(C(F)(F)C(=O)NCCC(=O)NS(C)(=O)=O)cc1", "% Inhibition": 40}, {"smiles": "Cc1c(C(=O)NC[C@](C)(O)c2ccc(F)cc2F)cnn1C", "% Inhibition": 10}, {"smiles": "NC(=O)C1CCN(C(=O)Nc2nc(C(F)(F)F)cs2)CC1", "% Inhibition": 7}, {"smiles": "COC(=O)Nc1nc(-c2ccccc2)c(-c2nc3ccccc3c(=O)n2-c2ccc(OC)cc2)s1", "% Inhibition": 23}, {"smiles": "FC(F)(F)C(c1nc(Nc2nc(N3CCOCC3)nc(N3CCOCC3)n2)nc(C(C(F)(F)F)(C(F)(F)F)C(F)(F)F)n1)(C(F)(F)F)C(F)(F)F", "% Inhibition": 12}, {"smiles": "O=C(CS(=O)(=O)Cc1cc(Cl)c2c(c1)OCCCO2)NC1CCCCCC1", "% Inhibition": -14}, {"smiles": "Cc1ccc(S(=O)(=O)NC(C)C)c(C)c1", "% Inhibition": 10}, {"smiles": "CCCCN(CC)c1ncc(C(=O)Nc2ccc(OCC)cc2)c(N)n1", "% Inhibition": 15}, {"smiles": "Clc1cccc(COc2ccccc2CNc2nc[nH]n2)c1", "% Inhibition": -7}, {"smiles": "Cc1ccc(CC(=O)N2CCC(NC(=O)OC(C)(C)C)CC2C)o1", "note": "(stereo unspecified)", "% Inhibition": 5}, {"smiles": "CC[C@H](C)Oc1cccc(-c2nc(=O)c(CCC(=O)N3CCOCC3)n[nH]2)c1", "% Inhibition": 10}, {"smiles": "C[C@H](NC(=O)c1ccco1)c1nc(-c2ccc(=O)n(C)c2)no1", "% Inhibition": 12}, {"smiles": "CCC1CN(CCCN2C(=O)CNC2=O)CCC1c1ccccc1", "note": "(stereo unspecified)", "% Inhibition": 4}, {"smiles": "CCc1cc(N2C[C@@H]3NC(=O)CN(C)Cc4ccc(OC)c(c4)Oc4cccc(c4)CO[C@H]3C2)nc(N(C)C)n1", "% Inhibition": 38}, {"smiles": "Cc1cccc2c1N(C(=O)[C@H]1CCS(=O)(=O)C1)CC2", "% Inhibition": 13}, {"smiles": "Nc1n[nH]c(N)c1Cc1cccc(Br)c1", "% Inhibition": 2}, {"smiles": "COc1ccc(-c2nc(-c3ccc(=O)n(C)c3)no2)c(OC)c1", "% Inhibition": 9}, {"smiles": "CCCN1CCN(C(=O)CN2CCCC2=O)c2ccc(F)cc21", "% Inhibition": -1}, {"smiles": "C#CCN(C(=O)c1ccncc1CC)c1nccs1", "% Inhibition": -9}, {"smiles": "COc1ccc(CC(=O)NCCOCCO)cc1", "% Inhibition": 8}, {"smiles": "O=C(CNC1=NC(=O)C(c2ccccc2)(c2ccccc2)N1)NCc1ccc(F)cc1", "% Inhibition": 4}, {"smiles": "CC[C@@H](CO)NC(=O)Nc1ccc(F)cc1", "% Inhibition": 8}, {"smiles": "CC(=O)Nc1ccc(NC(=O)CCC(C)C)cc1", "% Inhibition": -6}, {"smiles": "CN1CCN([C@H]2CCN(c3ccnc4ccc(Cl)cc34)C[C@H]2CCCO)CC1", "% Inhibition": 60}, {"smiles": "Cc1ccc(CNC(=O)c2cc3cc(OCc4ccccc4)ccc3n2Cc2ccccc2)o1", "% Inhibition": 9}, {"smiles": "CCCn1c(C)ccc(-c2noc(CCCC(=O)N3CCOCC3)n2)c1=O", "% Inhibition": 6}, {"smiles": "O=C(Nc1ncc(CCO)s1)[C@@H]1CCCN1C(=O)Cc1cccs1", "% Inhibition": 10}, {"smiles": "CC(C)(C)OC(=O)N1CCC(c2nc(-c3ccc(F)c(C(F)(F)F)c3)c[nH]2)CC1", "% Inhibition": -1}, {"smiles": "O=C(Nc1ccn(Cc2cccnc2)n1)c1ccc(-c2ccccc2F)o1", "% Inhibition": 6}, {"smiles": "CCS(=O)(=O)Nc1ccc(S(=O)(=O)NC[C@@H](c2ccccc2OC)N2CCCCC2)c(C)c1", "% Inhibition": 7}, {"smiles": "CCN1CCC(NC(=O)CCc2c[nH]c3ccccc23)CC1", "% Inhibition": 7}, {"smiles": "COc1ccc2nc(C(F)(F)F)nc(N3CCNC(=O)CCN(C(=O)C(F)=C4CCCC4)CC3)c2c1", "% Inhibition": 14}, {"smiles": "CCn1c(C)cc(C(=O)O[C@@H](C)C(=O)Nc2ncccn2)c1C", "% Inhibition": -1}, {"smiles": "Cc1cc(C(=O)Nc2cncc(Br)c2O)no1", "% Inhibition": 5}, {"smiles": "COc1ccc(NC(=O)Cn2cnc3nc(N4CCCCC4)ncc3c2=O)c(OC)c1", "% Inhibition": 13}, {"smiles": "CCOc1ccccc1NC(=O)[C@H]1CCCN(c2nc3cccnc3n(Cc3ccc(C)cc3)c2=O)C1", "% Inhibition": -1}, {"smiles": "CN(C(=O)c1ccc(NC(=O)c2cnsn2)cc1Cl)C1CCCCC1", "% Inhibition": -9}, {"smiles": "CCCc1cc(Nc2ccc(C(=O)NC[C@H]3CCCO3)cc2)n2nc(-c3cccnc3)nc2n1", "% Inhibition": 15}, {"smiles": "CCn1nc(C)cc1NS(=O)(=O)c1ccc2c(c1)C(C)(C)C(=O)N2C", "% Inhibition": -10}, {"smiles": "COc1ccc(CNC(=O)c2sc(Nc3ccc(C)cc3C)nc2C)c(OC)c1", "% Inhibition": -2}, {"smiles": "CCn1cc(Cl)c(-c2nnc(-c3cccc(C(F)(F)F)c3)o2)n1", "% Inhibition": 6}, {"smiles": "CCn1cc(C(=O)Nc2n[nH]c3ccc(C(F)(F)F)cc23)cn1", "% Inhibition": -4}, {"smiles": "O=C1CN(C(c2ccccc2)(c2ccccc2)c2ccccc2)CO1", "% Inhibition": -7}, {"smiles": "COC(=O)c1nc2ccccc2c(-c2cn(-c3ccc(C(F)(F)F)cc3)nn2)c1C(=O)OC", "% Inhibition": 3}, {"smiles": "N[C@H]1C[C@H](c2cc(NCCCc3cccnc3)nc(C3CC3)n2)C1", "% Inhibition": 77}, {"smiles": "Cc1cc(=O)c(C(=O)Nc2cccc(Cl)c2O)c[nH]1", "% Inhibition": 6}, {"smiles": "CCn1nccc1[C@@H]1CC(c2cccc(O)c2)=NN1c1ccc(S(N)(=O)=O)cc1", "% Inhibition": 12}, {"smiles": "Cc1cc(O)n2nc(N(C)C(=O)C(=O)N3CCN(C)CC3)c(S(=O)(=O)c3ccccc3)c2n1", "% Inhibition": 21}, {"smiles": "Clc1cccc(CNCCCNc2ccncc2)c1Cl", "% Inhibition": 95}, {"smiles": "CCCOc1ccc(CNC(=O)CCn2ccn3nc(-c4ccc(C)c(C)c4)cc3c2=O)cc1", "% Inhibition": 5}, {"smiles": "CC(=O)N(CC[C@]1(Cc2ccccc2Cl)CCOC(C)(C)C1)Cc1ccc(F)cc1", "% Inhibition": -10}, {"smiles": "N#CC1(O)C(C2COC3(CCCCC3)O2)OC2OC3(CCCCC3)OC21", "note": "(stereo unspecified)", "% Inhibition": 10}, {"smiles": "Cc1[nH]c(=O)[nH]c(=O)c1NS(C)(=O)=O", "% Inhibition": 11}, {"smiles": "COc1ccc(-c2cc3n(n2)C[C@@](C)(C(=O)NCc2ccccc2)N(Cc2ccc4c(c2)OCO4)C3=O)cc1", "% Inhibition": 39}, {"smiles": "c1ccc(CCc2nnc3n2CCOC3)cc1", "% Inhibition": 3}, {"smiles": "O=C(C[C@H]1CCN(C(=O)Nc2ccc3c(c2)OCCO3)C1)NCc1ccncc1", "% Inhibition": 7}, {"smiles": "CCC[C@H]1C(=O)NCCN1C(=O)c1cnn(CC2CCOCC2)c1C", "% Inhibition": 11}, {"smiles": "CC(NC(=O)C1CCC1)C(=O)Nc1ccn(C(C)c2ccccc2)n1", "note": "(stereo unspecified)", "% Inhibition": -6}, {"smiles": "O=C(c1cccc(-n2cccn2)n1)N1CCCCCCC1", "% Inhibition": -8}, {"smiles": "Cc1ccc2cnn(CCCNC(=O)c3ccco3)c2c1", "% Inhibition": -1}, {"smiles": "CCCN1C(=O)c2ccccc2N2C(=O)CC[C@@]12C(=O)Nc1ccc(OC)cc1", "% Inhibition": 92}, {"smiles": "Cc1noc(C)c1CC(=O)O[C@@H](C)C(=O)Nc1ccc(F)cc1", "% Inhibition": 5}]}]}
